Some of the results follow. Values were computed here from the reads of four pooled replicates and scatter widely.

The assay deals with T1, Pho4 (S. cerevisiae) (UniProt P07270).
T1 sequence: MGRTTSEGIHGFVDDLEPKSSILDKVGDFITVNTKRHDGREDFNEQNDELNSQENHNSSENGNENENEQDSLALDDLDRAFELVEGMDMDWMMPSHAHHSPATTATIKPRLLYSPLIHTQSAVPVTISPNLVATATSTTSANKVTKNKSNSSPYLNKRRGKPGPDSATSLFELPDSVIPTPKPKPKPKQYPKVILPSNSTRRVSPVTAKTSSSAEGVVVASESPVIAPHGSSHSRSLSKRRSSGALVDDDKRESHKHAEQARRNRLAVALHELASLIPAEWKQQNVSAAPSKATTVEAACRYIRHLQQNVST
Briefly: relative binding free energy (BET-seq); higher = weaker binding. Conditions: reference: library average.
Consider GGTGCCACGTGTTGAT, for which the “relative binding free energy” value was -0.12 kcal/mol. Consider TGGTTCACGTGGTGCT, for which the “relative binding free energy” value was found to be 0.23 kcal/mol. With ATTGTCACGTGGATTT, the “relative binding free energy” value worked out at 0.11 kcal/mol. Consider TTCACCACGTGTGTGG, for which the “relative binding free energy” value is 0.05 kcal/mol. Regarding TTCGGCACGTGAGGGC, the “relative binding free energy” value was determined as 0.21 kcal/mol. Regarding GAATGCACGTGGGTTA, the “relative binding free energy” value amounted to 0.03 kcal/mol.

In the case of GCGGACACGTGGAGTG, the “relative binding free energy” value is -0.04 kcal/mol. Consider GGTATCACGTGTATTG, for which the “relative binding free energy” value turned out to be 0.1 kcal/mol.

For the sequence GTATCCACGTGGGAGG, the “relative binding free energy” value was -0.08 kcal/mol. In the case of TGCAGCACGTGGTTTG, the “relative binding free energy” value amounted to 0.03 kcal/mol.

In the case of AATTGCACGTGCGAGT, the “relative binding free energy” value was found to be 0.06 kcal/mol. Consider TTCAGCACGTGATAGT, for which the “relative binding free energy” value worked out at 0.05 kcal/mol. As to AATGTCACGTGGTAAG, the “relative binding free energy” value turned out to be 0.04 kcal/mol. Regarding TAAGGCACGTGCTAGT, the “relative binding free energy” value was -0.06 kcal/mol. The result for GGTTACACGTGTGAAG reads 0.27 kcal/mol.

For ATCGGCACGTGGCGTG, the “relative binding free energy” value was -0.24 kcal/mol. As for ATATTCACGTGTATGA, the “relative binding free energy” value stood at 0.17 kcal/mol. Consider GCAAGCACGTGGGAGG, for which the “relative binding free energy” value was -0.16 kcal/mol. On to GGGCTCACGTGATAGT, for which the “relative binding free energy” value is 0.61 kcal/mol. For CATTGCACGTGTTCGG, the “relative binding free energy” value is -0.04 kcal/mol.

For the sequence TCTAGCACGTGGGGAG, the “relative binding free energy” value is -0.07 kcal/mol. As for GTACTCACGTGGGATT, the “relative binding free energy” value worked out at 0.34 kcal/mol. Turning to TTTAACACGTGAGTGC, the “relative binding free energy” value came out at 0.28 kcal/mol. In the case of GATTGCACGTGGGACT, the “relative binding free energy” value is -0.02 kcal/mol.

Consider TGGGACACGTGGGCAG, for which the “relative binding free energy” value was -0.11 kcal/mol.

As for GGTACCACGTGGGGCT, the “relative binding free energy” value is -0.16 kcal/mol. As for AGGTTCACGTGGTCTA, the “relative binding free energy” value was 0.14 kcal/mol. As for TGGGTCACGTGTCGGA, the “relative binding free energy” value is 0.27 kcal/mol. On to GGGCGCACGTGATGTT, for which the “relative binding free energy” value worked out at 0.17 kcal/mol. To TAGGACACGTGGGTAA belongs -0.27 kcal/mol; to GTCGGCACGTGTTGTT, -0.16 kcal/mol; to TGTGCCACGTGGGTAA, -0.15 kcal/mol. Regarding ACGTCCACGTGGGGTG, the “relative binding free energy” value is -0.22 kcal/mol.

Take TTGCGCACGTGTGGTC: the “relative binding free energy” value was -0.15 kcal/mol. To TCGAACACGTGTTTGT belongs 0.07 kcal/mol. On to GTGCACACGTGAGTTG, for which the “relative binding free energy” value amounted to 0.28 kcal/mol. Take GGACGCACGTGATGGG: the “relative binding free energy” value came out at 0.07 kcal/mol.

Turning to AAGTGCACGTGCAGTA, the “relative binding free energy” value was found to be 0.08 kcal/mol. Regarding ATTGTCACGTGTTAAG, the “relative binding free energy” value is 0.1 kcal/mol. To TATAGCACGTGGTAAA belongs -0.11 kcal/mol; to GGGCTCACGTGTTAGG, 0.35 kcal/mol.

GGATGCACGTGGAGGT: the “relative binding free energy” value is -0.05 kcal/mol. For GCTATCACGTGTATTT, the “relative binding free energy” value is 0.24 kcal/mol. The result for TTTTTCACGTGCTGTC reads 0.29 kcal/mol. On to GTTGGCACGTGTGAAC, for which the “relative binding free energy” value was -0.01 kcal/mol. The result for TGGGGCACGTGCGTAC reads -0.16 kcal/mol; that for AGCTTCACGTGGTTGG, 0.2 kcal/mol. Consider AGGGCCACGTGTGTAA, for which the “relative binding free energy” value was -0.13 kcal/mol. Take TGGTGCACGTGATATA: the “relative binding free energy” value is 0.05 kcal/mol. In the case of TATAACACGTGATTAT, the “relative binding free energy” value was 0.06 kcal/mol. The result for GGTTTCACGTGGGGCT reads 0.22 kcal/mol. Turning to AGCAGCACGTGGGGTG, the “relative binding free energy” value was -0.28 kcal/mol. For the sequence TCGTCCACGTGTTTGT, the “relative binding free energy” value was 0.05 kcal/mol. Take AGTGTCACGTGCGCAT: the “relative binding free energy” value was -0.02 kcal/mol. The result for TATTGCACGTGCAAGG reads -0.04 kcal/mol. Regarding TATTACACGTGATTAA, the “relative binding free energy” value was 0.21 kcal/mol. To GAAGTCACGTGCGGTT belongs 0.14 kcal/mol; to TCGGTCACGTGCAGTT, 0.12 kcal/mol; to AGTGGCACGTGTACTT, -0.01 kcal/mol. In the case of GATCTCACGTGTGTGA, the “relative binding free energy” value is 0.25 kcal/mol. With GGGCGCACGTGGTAGC, the “relative binding free energy” value was 0 kcal/mol. Take TGTAGCACGTGCTGTA: the “relative binding free energy” value was -0.18 kcal/mol. As to TTGATCACGTGTGGGG, the “relative binding free energy” value is 0.21 kcal/mol. To TTGCTCACGTGCTTGG belongs 0.01 kcal/mol; to GGTATCACGTGTGCCT, 0.24 kcal/mol; to GGCGTCACGTGTTTGA, 0.18 kcal/mol.

For the sequence ATATTCACGTGATCAT, the “relative binding free energy” value was 0.32 kcal/mol. To GTGAGCACGTGGCGCG belongs -0.1 kcal/mol; to CGGAGCACGTGAGTAG, 0.17 kcal/mol; to TAAAGCACGTGAGGAA, 0.12 kcal/mol. In the case of ATCATCACGTGCGGGT, the “relative binding free energy” value is 0.21 kcal/mol.

CGTTACACGTGTGTCG: the “relative binding free energy” value worked out at 0.14 kcal/mol. For TTTAGCACGTGGGAGG, the “relative binding free energy” value was -0.11 kcal/mol.

With GGATGCACGTGTGTCT, the “relative binding free energy” value was found to be 0.01 kcal/mol. To AGAGGCACGTGGTAGA belongs -0.14 kcal/mol; to CTGTACACGTGGGATT, 0.02 kcal/mol; to TGGGGCACGTGTCGGT, -0.06 kcal/mol.

Regarding GTGTACACGTGGTTTG, the “relative binding free energy” value came out at 0.01 kcal/mol.

With AGTGTCACGTGGTTGG, the “relative binding free energy” value turned out to be 0 kcal/mol.

GTTGTCACGTGAGGAG: the “relative binding free energy” value turned out to be 0.31 kcal/mol. TTCAGCACGTGGGTGG: the “relative binding free energy” value was -0.24 kcal/mol. Take GCAGTCACGTGTTTGT: the “relative binding free energy” value was found to be 0.05 kcal/mol. Take GGGTACACGTGTAGAT: the “relative binding free energy” value is 0.25 kcal/mol. The result for AAATTCACGTGGATGT reads 0.37 kcal/mol; that for GATGCCACGTGTTGGG, 0.03 kcal/mol.

With TGGGCCACGTGTGGTT, the “relative binding free energy” value amounted to 0.03 kcal/mol. As for TTCGCCACGTGTAATG, the “relative binding free energy” value turned out to be 0.28 kcal/mol.

Regarding ATGAACACGTGTTTGG, the “relative binding free energy” value was found to be 0.06 kcal/mol. Consider GGGTCCACGTGTGCTT, for which the “relative binding free energy” value was found to be 0.02 kcal/mol. As to TCGTTCACGTGATGGA, the “relative binding free energy” value turned out to be 0.37 kcal/mol. Take ATGTTCACGTGATGAG: the “relative binding free energy” value came out at 0.24 kcal/mol. The result for TTGTACACGTGCGGTG reads 0.11 kcal/mol. In the case of TTACGCACGTGTTCTT, the “relative binding free energy” value was 0.01 kcal/mol. Take TAAAGCACGTGTTAAT: the “relative binding free energy” value is -0.1 kcal/mol.

On to TTTTACACGTGGAATA, for which the “relative binding free energy” value was 0.12 kcal/mol. As for TGTTTCACGTGATCGC, the “relative binding free energy” value was 0.15 kcal/mol. AATGGCACGTGCGTAG: the “relative binding free energy” value was -0.05 kcal/mol.

CAGTGCACGTGGGGGT: the “relative binding free energy” value is -0.19 kcal/mol. To GTTGGCACGTGTTACG belongs -0.12 kcal/mol; to AAATTCACGTGTGGTA, 0.37 kcal/mol. To TAATGCACGTGTATTT belongs 0.17 kcal/mol; to ATGCTCACGTGAATGT, 0.4 kcal/mol. With TTTAGCACGTGGCAGT, the “relative binding free energy” value is -0.09 kcal/mol. Take GAAAGCACGTGCAGTG: the “relative binding free energy” value is 0.23 kcal/mol. TGATTCACGTGTGCAA: the “relative binding free energy” value turned out to be 0.25 kcal/mol. For GTATACACGTGCTGTT, the “relative binding free energy” value is -0.07 kcal/mol.

As for AGGGACACGTGTAGAT, the “relative binding free energy” value worked out at 0.27 kcal/mol. The result for AAGGGCACGTGGGAAG reads -0.25 kcal/mol. As for TTACTCACGTGTGGGG, the “relative binding free energy” value worked out at 0.19 kcal/mol. As for ATTTACACGTGCGATT, the “relative binding free energy” value was 0.05 kcal/mol. Take TGTGCCACGTGGTTCA: the “relative binding free energy” value was -0.19 kcal/mol.

In the case of TGGGGCACGTGAGTTT, the “relative binding free energy” value was found to be 0.19 kcal/mol.

For CTGTGCACGTGGCGGT, the “relative binding free energy” value was -0.06 kcal/mol. GAATGCACGTGCGTTG: the “relative binding free energy” value was -0.01 kcal/mol. As for TAGGGCACGTGTCGGC, the “relative binding free energy” value was -0.23 kcal/mol. To CGTTGCACGTGATTAG belongs -0.1 kcal/mol; to CTGGGCACGTGGATGG, -0.13 kcal/mol; to TCTGTCACGTGTCGTG, 0.21 kcal/mol.

With TTGTGCACGTGAAGCA, the “relative binding free energy” value was found to be 0.2 kcal/mol. Regarding CGGGACACGTGTTGGT, the “relative binding free energy” value worked out at 0.09 kcal/mol. The result for GGATCCACGTGGGTTG reads -0.04 kcal/mol.

Consider GGGATCACGTGGAAAG, for which the “relative binding free energy” value came out at 0.3 kcal/mol. The result for CGTTTCACGTGTCTGG reads 0.31 kcal/mol; that for AAAGGCACGTGTGGGC, -0.11 kcal/mol. Take TACGGCACGTGTAGGG: the “relative binding free energy” value was -0.02 kcal/mol. Regarding TGTTCCACGTGGTGCT, the “relative binding free energy” value was -0.14 kcal/mol.

Turning to ATTAACACGTGTAGTA, the “relative binding free energy” value is -0.06 kcal/mol. To ATCAACACGTGTGGGG belongs -0.01 kcal/mol; to ATGGACACGTGTCTTG, -0.04 kcal/mol. The result for TATTTCACGTGAATTG reads 0.39 kcal/mol.

As to GGAGGCACGTGTCTGA, the “relative binding free energy” value was -0.1 kcal/mol. Turning to TGGAACACGTGTATTG, the “relative binding free energy” value was -0.03 kcal/mol.

As to TTTTACACGTGGGTAA, the “relative binding free energy” value is 0.09 kcal/mol. Turning to GGTTGCACGTGGCCGT, the “relative binding free energy” value is -0.11 kcal/mol. With GGGTGCACGTGAACGG, the “relative binding free energy” value was 0.33 kcal/mol. Consider AGGGTCACGTGCAAGA, for which the “relative binding free energy” value turned out to be 0.24 kcal/mol. AAGTCCACGTGATGTT: the “relative binding free energy” value is 0.23 kcal/mol.

As for AGTTGCACGTGTAGGT, the “relative binding free energy” value came to 0.01 kcal/mol. Take TGAATCACGTGCTGTT: the “relative binding free energy” value stood at 0.1 kcal/mol. Take GTTCTCACGTGGTGCG: the “relative binding free energy” value stood at 0.17 kcal/mol. For CTGGTCACGTGTATAT, the “relative binding free energy” value came out at 0.06 kcal/mol. To GGGGACACGTGAATTT belongs 0.41 kcal/mol; to ATAATCACGTGAGTGT, 0.25 kcal/mol; to AAATGCACGTGGCTTT, -0.02 kcal/mol. Turning to CTTTACACGTGCATGT, the “relative binding free energy” value came to 0.24 kcal/mol. The result for CGCGTCACGTGTTGTA reads 0.03 kcal/mol.

The record behind these values is the BET-seq Pho4 binding data (Le et al. 2018).
